# Assay results reported in PubChem BioAssay AID1345082 (National Center for Advancing Translational Sciences (NCATS), 2018).
# Hit rate of the full screen: of about 94,000 compounds, about 4,000 (4.3%) were called active. The shares of active, inactive and inconclusive entries below differ from those in the screen. Calls come from the whole dose curve; as a rule, active = well fitted inhibition curve with a large enough effect; inconclusive = small, poorly fitted or top-dose-only effect; inactive = no such curve, though single readings can be large or run the other way. Where the call is inconclusive, the potency comes from a doubtful curve fit.
# Experiment: Cytotoxic Profiling in NIH 3T3 Cell Line of Diverse Libraries Using Quantitative High-Throughput Screening; note: nearly all actives have a fitted effect of over 55% in size
# Settings: NIH 3T3 viability, CellTiter-Glo ATP luminescence, 48-72 h; series mostly up to 96.7 µM
# Procedure, shortened: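 First NIH 3T3 cells are plated at 400 cells/well; next compound is pinned in; then plates incubate 48 or 72 hr at 37 °C; finally CellTiter-Glo is added and luminescence read after 10 min.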
# Potency is the fitted concentration of half-maximal effect; tags give direction and shape of the fitted curve.
row,SMILES,Potency
1,O=S(=O)(Cc1ccccc1)N1CCC(OC2CCN(Cc3ccccc3)CC2)CC1,"inconclusive: 44.7 µM [inhibitor, partial curve, poor fit]"
2,O=C1NCCCCCCN(C(=O)CC2CCCCC2)[C@H]2CCCC[C@@H]12,inactive
3,CCCc1ncncc1C(=O)N1CCCC(CCc2ccc(F)cc2)C1 (stereo not given),"inconclusive: 89.1 µM [inhibitor, single point]"
4,Cn1cc(CNc2ccc(-c3nc(CCCc4ccccc4)no3)cn2)cn1,"inconclusive: 39.8 µM [inhibitor, partial curve]"
5,CCC1(C(=O)NC2CCCCCC2)CCCCC(=O)N1 (stereo not given),inactive
6,O=C1Nc2ccccc2CN(CC2CCCCC2)C12CCNC2 (stereo not given),active: 22.4 µM
7,Cc1ccccc1C(=O)N1CCCN(c2ccc3nnc(-c4ccccc4)n3n2)CC1,"inconclusive: 50.1 µM [inhibitor, partial curve, poor fit]"
8,Cc1nn(-c2ccccc2)c2c1C(C(C)C)N(C1CCN([S+](=O)([O-])c3cccs3)C1)C2=O (stereo not given),"inconclusive: 79.4 µM [inhibitor, single point]"
9,O=C(C1CCCC1)N1CCN(Cc2ccccc2-c2cccnc2)CC1,"inconclusive: 39.8 µM [inhibitor, partial curve, poor fit]"
10,c1ccc(-c2nc(C3CCOCC3)no2)c(OC2CCN(C3CCCC3)C2)c1 (stereo not given),"inconclusive: 35.5 µM [inhibitor, partial curve]"
11,O=C1Nc2ccc(-c3ccc(F)cc3F)cc2C(=O)N2CC[C@H](NC(=O)N3CCOCC3)[C@@H]12,inactive
12,Cc1ccc(S(=O)(=O)N2CCC(CCC(=O)NCc3ccccc3)CC2)cc1,"inconclusive: 44.7 µM [inhibitor, partial curve, poor fit]"
13,CC1(c2ccccc2)N(Cc2ccccc2)C(=O)OC12CCN(C(=O)c1ccc(F)cc1)CC2 (stereo not given),"inconclusive: 70.8 µM [inhibitor, single point]"
14,C=CCNC(=O)CCc1c(C)nn(-c2ccccc2)c1Oc1ccccc1F,"inconclusive: 56.2 µM [inhibitor, partial curve, poor fit]"
15,O=C(N1CCN(c2cc(-c3ccc(Cl)cc3)[nH]n2)CC1)C1(c2ccccc2)CC1,active: 35.5 µM
16,O=C(O)COc1ccc(-c2nccc3c2C(=O)N(Cc2c[nH]c4ccccc24)CC(COc2cccc(N4CCOCC4)c2)O3)cc1 (stereo not given),"inconclusive: 44.7 µM [inhibitor, partial curve, poor fit]"
17,COc1ccc(NC(=O)Cn2c(=O)n(-c3ccccc3)c(=O)c3c2cc(C)n3C)c(OC)c1,"inconclusive: 70.8 µM [inhibitor, single point]"
18,COc1cccc(CN2C(=O)OC3(CCN(C(=O)C4CCC(OC)CC4)CC3)C2(C)c2cccnc2)c1 (stereo not given),"inconclusive: 7.08 µM [inhibitor, full curve, poor fit]"
19,CN(C)C(=O)C1CCN(Cc2ccccc2-c2ccccc2F)CC1,"inconclusive: 79.4 µM [inhibitor, single point]"
20,O=C(NCc1cccc(F)c1)c1ccc2nnc(C3CCOCC3)n2c1,inactive

row,SMILES,Potency
1,COc1cc(CN2CCC(CO)(CN3CCCC3)CC2)ccc1F,"inconclusive: 79.4 µM [inhibitor, single point]"
2,COCCCn1c(C)cnc1CC1CCN(S(=O)(=O)c2cccs2)CC1,inactive
3,N#Cc1cccc(C(=O)N2CCC3(CC2)NC(=O)N(Cc2ccc(Cl)cc2)C3=O)c1,"inconclusive: 70.8 µM [inhibitor, partial curve, poor fit]"
4,CN(C)c1cc(=O)c2ccnc(-c3ccccc3Oc3ccccc3)c2o1,"inconclusive: 50.1 µM [inhibitor, partial curve, poor fit]"
5,O=C(Cc1ccc(F)cc1)N1CCC(n2cc(-c3nc(-c4ccccc4)no3)nn2)CC1,"inconclusive: 11.2 µM [inhibitor, full curve]"
6,COc1ccccc1C(=O)N1CCC(CCOc2ccncc2)C1 (stereo not given),"inconclusive: 31.6 µM [inhibitor, partial curve, poor fit]"
7,Cc1nc(-c2ccccc2)n(CC(=O)Nc2ccc(F)c(Cl)c2)c(=O)c1CCO,"inconclusive: 39.8 µM [inhibitor, partial curve]"
8,O=C(c1ccccc1F)N1CCC2(CC1)C(=O)NN=C2c1cccnc1,inactive
9,COc1cccc(-c2ccnc(-c3nnc(C)n3CCN3CCOCC3)c2)c1,inactive
10,O=C(c1ccc2ncccc2c1)N1CCCCCC1c1nnc(-c2ccccc2)o1 (stereo not given),"inconclusive: 44.7 µM [inhibitor, partial curve, poor fit]"
11,CCCn1c(C)cnc1CC1CCN(S(=O)(=O)c2ccc3c(c2)CCC3)C1 (stereo not given),"inconclusive: 39.8 µM [inhibitor, partial curve, poor fit]"
12,CCC(C(=O)NC1CCN(c2cc(-c3ccc(OC)cc3)[nH]n2)CC1)c1ccccc1 (stereo not given),"inconclusive: 39.8 µM [inhibitor, partial curve, poor fit]"
13,CCc1cc(=O)n(CC(=O)Nc2cc(C)on2)c(-c2ccccc2)n1,"inconclusive: 25.1 µM [inhibitor, full curve, poor fit]"
14,CN(c1ncccc1CNC(=O)c1ccc2c(c1)OCO2)C1CCCCC1,inactive
15,CCc1ccc(S(=O)(=O)N[C@@H]2COCC[C@H]2Oc2ccccn2)s1,"inconclusive: 50.1 µM [inhibitor, partial curve, poor fit]"
16,CC1(C)NC(=O)N(CC(=O)N2CCc3nc(-c4cccnc4)[nH]c3C2)C1=O,inactive
17,COCCCn1c(=O)c(C(=O)N2CCN([S+](=O)([O-])c3c(C)noc3C)CC2)nc2cccnc21,inactive
18,COCCNc1ncc(-c2cccc(C(C)=O)c2)c2c1OCC2,"inconclusive: 31.6 µM [inhibitor, full curve]"
19,COc1ccc(OCC2(C)COc3ccc(C(=O)N4C[C@@H](C)O[C@@H](C)C4)cc3N2)cc1 (stereo not given in full),"inconclusive: 112 µM [inhibitor, single point]"
20,Cc1ccc(C(=O)N2CCN(c3ccc4nnc(C)n4n3)CC2)cc1,"inconclusive: 100 µM [inhibitor, partial curve, poor fit]"
